Data reported in article PMC5643338.
No constants are given. Whether binding was seen depends on the method and setting. For part of these data: In cells and extracts the contact can be indirect. Some results given as binding are weak or reduced against the parent protein; the word gives no strength. For part of these data: Tags and fused reporters may be left off the sequences shown. One block for each binder: values may come before it.

Sequences of proteins named here, by UniProt entry; tags and fusion partners are left off. A change or cut given only in a name is not applied to a line headed by its entry. A line that says so, or that is headed by a name, gives the form on record, which may keep a tag or linker. Residues count along the entry.
UniProt Q86WV6: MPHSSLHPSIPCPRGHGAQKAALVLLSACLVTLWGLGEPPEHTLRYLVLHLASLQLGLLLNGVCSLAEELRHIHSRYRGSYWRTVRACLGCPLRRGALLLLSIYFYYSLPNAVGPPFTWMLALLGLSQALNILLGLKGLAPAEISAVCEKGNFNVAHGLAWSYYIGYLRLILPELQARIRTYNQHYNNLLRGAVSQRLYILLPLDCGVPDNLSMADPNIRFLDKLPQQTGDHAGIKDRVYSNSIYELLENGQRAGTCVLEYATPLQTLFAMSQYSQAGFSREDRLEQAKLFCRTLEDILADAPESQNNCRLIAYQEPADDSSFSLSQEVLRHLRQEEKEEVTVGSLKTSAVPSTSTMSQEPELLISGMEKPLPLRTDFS
Myc-tagged STING truncation mutant 1–160: residues 1-160 of Q86WV6
Myc-tagged STING truncation mutant 1–110: residues 1-110 of Q86WV6
Myc-tagged STING truncation mutant aa211–379: residues 211-379 of Q86WV6

Tests used:
[1] = target: T1, Stimulator of interferon genes (STING) (endogenous, mouse dendritic cells) (mouse (endogenous in D2SC and BMDCs)) (UniProt Q3TBT3); experiment: co-IP; endogenous proteins; whole-cell lysates of BMDCs from WT mice without HSV-60 stimulation, then MG132 for 3 h; precipitated with anti-STING, blot for TRIM29
T1 sequence: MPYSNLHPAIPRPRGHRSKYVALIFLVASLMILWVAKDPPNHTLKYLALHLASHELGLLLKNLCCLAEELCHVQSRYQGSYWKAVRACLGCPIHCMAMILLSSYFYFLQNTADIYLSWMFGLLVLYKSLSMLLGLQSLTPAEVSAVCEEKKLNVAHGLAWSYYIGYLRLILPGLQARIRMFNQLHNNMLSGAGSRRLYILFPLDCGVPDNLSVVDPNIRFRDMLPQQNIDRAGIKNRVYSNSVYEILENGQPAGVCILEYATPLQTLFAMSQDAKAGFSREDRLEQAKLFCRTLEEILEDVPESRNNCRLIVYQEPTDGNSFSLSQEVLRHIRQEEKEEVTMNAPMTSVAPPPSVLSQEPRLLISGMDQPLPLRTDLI

[2] = target: T1, Stimulator of interferon genes (STING) (endogenous, mouse dendritic cells) (mouse (endogenous in D2SC and BMDCs)); experiment: co-IP; endogenous proteins; whole-cell lysates of BMDCs from WT mice stimulated with HSV-60 (2.5 μg/ml) for 8 h, then MG132 for 3 h; precipitated with anti-STING or control IgG, blot for TRIM29
[3] = target: Myc-tagged STING truncation mutant 1–110 (UniProt Q86WV6); experiment: pull-down; in vitro: purified HA-tagged TRIM29 (or truncations) incubated for 2 h with purified Myc-tagged STING (or truncations), anti-Myc beads for 2 h, blot with anti-HA; both purified
[4] = target: Myc-tagged STING truncation mutant 1–160 (UniProt Q86WV6); experiment: as above
[5] = target: Myc-tagged STING truncation mutant aa211–379 (UniProt Q86WV6); experiment: as above
[6] = target: Myc-tagged recombinant full-length STING (UniProt Q86WV6); experiment: as above

binding [2]: binds
B1: TRIM29 (endogenous, mouse dendritic cells) (protein, UniProt Q8R2Q0 1-587)
chain: MEGADACRSNGASPEARDTRSPPGPSGSLENGTKADSKDTKTTNGHSGEVTEGKTLGSALKSGEGKSGLFSSNEWRRPIIQFVESVDDKGSSYFSMDSAEGRRSPYAGLQLGASKKPPVTFAEKGELRKSIFSEPRKPTVTIVEPGEVRRNSYPRADSSLLARAKSGSEEVLCDSCIGNKQKAVKSCLVCQASFCELHLKPHLEGAAFRDHQLLEPIRDFEARKCPLHGKTMELFCQTDQTCICYLCMFQEHKNHSTVTVEEAKAEKETELSLQKEQLQLKIIEIEDDVEKWQKEKDRIKSFTTNEKAILEQNFRDLVRELEKQKEEVRAALEQREQDAVDQVKVIVDALDERAKVLHEDKQTREQLHNISDSVLFLQEFGALMSNYSLPPPLPTYHVLLEGEGLGQSLGNCKDDLLNVCMRHVEKMCKADLSRNFIERNHMENGGDHRYMNSYTSSYGNEWSTPDTMKRYSMYLTPKGGGRTSYQPSSPSRLSKETNQKNFNNLYGTKGNYTSRVWEYTSTVQNSEDMPTVQGNSSFSLKGFPSLLRSQVPKAQPQTWKSGKQTLLSHYRPFYVNKGSGIGSNEAP
binding [1]: no binding (condition: without dsDNA stimulation)

binding [3]: no binding
binding [4]: no binding
binding [5]: no binding
binding [6]: binds
B2: HA-tagged recombinant full-length TRIM29 (protein, UniProt Q14134 1-588)
chain: MEAADASRSNGSSPEARDARSPSGPSGSLENGTKADGKDAKTTNGHGGEAAEGKSLGSALKPGEGRSALFAGNEWRRPIIQFVESGDDKNSNYFSMDSMEGKRSPYAGLQLGAAKKPPVTFAEKGELRKSIFSESRKPTVSIMEPGETRRNSYPRADTGLFSRSKSGSEEVLCDSCIGNKQKAVKSCLVCQASFCELHLKPHLEGAAFRDHQLLEPIRDFEARKCPVHGKTMELFCQTDQTCICYLCMFQEHKNHSTVTVEEAKAEKETELSLQKEQLQLKIIEIEDEAEKWQKEKDRIKSFTTNEKAILEQNFRDLVRDLEKQKEEVRAALEQREQDAVDQVKVIMDALDERAKVLHEDKQTREQLHSISDSVLFLQEFGALMSNYSLPPPLPTYHVLLEGEGLGQSLGNFKDDLLNVCMRHVEKMCKADLSRNFIERNHMENGGDHRYVNNYTNSFGGEWSAPDTMKRYSMYLTPKGGVRTSYQPSSPGRFTKETTQKNFNNLYGTKGNYTSRVWEYSSSIQNSDNDLPVVQGSSSFSLKGYPSLMRSQSPKAQPQTWKSGKQTMLSHYRPFYVNKGNGIGSNEAP
